Reference: PubChem BioAssay AID485294 (National Center for Advancing Translational Sciences (NCATS), 2010)
Hit rate of the full screen: of about 370,000 compounds, about 150 (0.041%) were called active. Inconclusive results, whose numbers are uncertain, are shown with a selection of clear calls. The call rests on the fitted dose curve; in most records, active means well fitted inhibition curve with a large enough effect; inconclusive means small, poorly fitted or top-dose-only effect; inactive means flat fitted curve, though single readings scatter. Potencies of inconclusive entries are left out as doubtful fits.
Further: nearly all actives have a fitted effect of over 25% in size.
Potency means the concentration at half of the fitted maximal effect; tags describe the fitted curve by direction and shape.
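Wherever activity change, negative = inhibition is given: 0% = no-compound wells and -100% = no-enzyme wells.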

The compounds below were run against Beta-lactamase (Escherichia coli (strain K12)) (UniProt P00811) (assay: qHTS Inhibitors of AmpC Beta-Lactamase (assay with detergent)). Settings: AmpC hydrolysis of nitrocefin, absorbance 480 nm, 0.01% Triton; activity change, negative = inhibition: at 114 µM (top of the series).
Chain of UniProt P00811 (P00811 whole entry, looked up): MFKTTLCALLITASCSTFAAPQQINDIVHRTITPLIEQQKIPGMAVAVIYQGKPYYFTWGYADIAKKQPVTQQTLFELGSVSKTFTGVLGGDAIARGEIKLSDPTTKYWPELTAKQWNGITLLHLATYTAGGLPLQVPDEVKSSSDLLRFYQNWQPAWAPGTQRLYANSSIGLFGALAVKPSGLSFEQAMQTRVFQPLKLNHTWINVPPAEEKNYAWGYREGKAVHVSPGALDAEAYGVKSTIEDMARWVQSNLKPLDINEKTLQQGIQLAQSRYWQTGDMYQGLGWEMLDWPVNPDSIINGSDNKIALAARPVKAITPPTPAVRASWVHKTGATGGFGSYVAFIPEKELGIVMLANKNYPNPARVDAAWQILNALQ
In short: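 20 mM phosphate pH 7.0 + 0.01% (detergent screen) or 0.0001% Triton X-100; 5.3 nM AmpC reagent; cpd preinc 15 min RT; nitrocefin (800 uM stock) to start; A480 q20 s × 4 min; Activity was normalised to no-enzyme and no-compound control wells.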
With `CCOC(=O)c1cc(NC(=O)c2ccc(OC)cc2)c(=O)n2c1oc1ccc(Cl)cc12` the “activity change, negative = inhibition” value was inactive: 24.2%.
`Cc1ccc(C(=O)NN2CC(O)=C(c3nc(-c4cccc([N+](=O)[O-])c4)cs3)C2=N)cc1` was tested, and the Potency was inconclusive [inhibitor, full curve, poor fit].
In the case of `COc1ccc(C(=O)NC(=S)NNC(=O)c2c(-c3ccccc3)noc2C)cc1OC`, the Potency is reported as inconclusive [inhibitor, full curve, poor fit].
For `CC(C(=O)N1CCCc2c1c(=O)oc1ccc(O)cc21)N1CCc2ccccc2C1` (stereo unspecified), the Potency was inconclusive [inhibitor, partial curve, poor fit].
In the case of `CCCCCC(=O)Nc1ccc(Cl)cn1`, the Potency is reported as inconclusive [inhibitor, full curve].
In the case of `CCCCCn1c(CN2CCN(C)CC2)nc2c1c(=O)n(C)c(=O)n2C`, the Potency is reported as inconclusive [inhibitor, partial curve, poor fit].
In the case of `CCOC(=O)C1=C(C)NC(=S)NC1c1ccc(C)s1` (stereo unspecified), the Potency is reported as inconclusive [inhibitor, partial curve, poor fit].
With `O=C(O)c1cccc(N/N=C/c2ccc(OC(F)(F)F)cc2)c1` the “activity change, negative = inhibition” value was inactive: 5.77%.
With `CCOC(=O)c1sc(NC(=O)c2ccc(Cl)s2)cc1C` the Potency was inconclusive [inhibitor, partial curve].
In the case of `CCOC(=O)c1c(/N=C/N(C)C)sc(C)c1C`, the Potency is reported as inconclusive [inhibitor, full curve, poor fit].
For `COc1cc(NC(=S)NCc2cccs2)cc(OC)c1`, the Potency was inconclusive [inhibitor, partial curve].
For `COc1ccc(C(=O)CSc2nnc(C3CC3)n2N)cc1`, the Potency was inconclusive [inhibitor, partial curve, poor fit].
In the case of `O=C(CN1C(=O)NC2(CCCCC2)C1=O)Nc1ccccc1N1CCCCC1`, the Potency is reported as inconclusive [inhibitor, full curve, poor fit].
`Cc1ccc(N(CC(=O)NC2CCCCCC2)S(=O)(=O)c2c(C)nn(C)c2C)cc1` was tested, and the Potency was inconclusive [inhibitor, single point].
With `CCCCCn1c(=O)c(C(=O)NCc2ccc(Cl)cc2)c(O)c2ccccc21` the Potency was inconclusive [inhibitor, full curve, poor fit].
`O=C(Nc1ccc(N2CCOCC2)cc1)c1cc2ccccc2o1` was tested, and the “activity change, negative = inhibition” value was inactive: -3.8%.
`CC(CCc1ccccc1)NC(=O)COC(=O)C1=COCCO1` (stereo unspecified) was tested, and the Potency was inconclusive [inhibitor, partial curve, poor fit].
In the case of `O=C(O)CCC(=O)NNC(=O)CCC(=O)NCc1ccccc1`, the Potency is reported as inconclusive [inhibitor, single point].
In the case of `CC(=O)c1cccc(NC(=O)CSCc2ccccc2)c1`, the “activity change, negative = inhibition” value is reported as inactive: -8.24%.
With `Cc1cc(Nc2ccc(F)c(Cl)c2)n2ncnc2n1` the Potency was inconclusive [inhibitor, full curve, poor fit].
With `Cc1cn2c(=O)cc(COc3ccccc3NC(=O)c3ccc(Cl)cc3)nc2s1` the “activity change, negative = inhibition” value was inactive: 1.57%.
`COc1ccccc1N1CCN(C(=O)C(=O)c2cn(CC(=O)N3CCCC3)c3ccccc23)CC1` was tested, and the “activity change, negative = inhibition” value was inactive: -0.118%.
In the case of `COc1ccccc1NC(=O)C1CCN(c2cnccn2)CC1`, the “activity change, negative = inhibition” value is reported as inactive: 3.27%.
In the case of `O=C1SCC(c2ccc(Cl)cc2Cl)=NN1Cc1nnc(-c2ccccc2)o1`, the Potency is reported as inconclusive [inhibitor, full curve, poor fit].
For `CSc1ncc(C(=O)Nc2cc(Cl)ccc2C)c(-c2ccccc2)n1`, the “activity change, negative = inhibition” value was inactive: 0.949%.
For `COCCN(C(=O)C(F)(F)F)C(C(=O)NC1CCCCC1)c1ccco1` (stereo unspecified), the “activity change, negative = inhibition” value was inactive: 10.9%.
`CC(C)C(=O)Nc1cccc(C(=O)Nc2ccc(S(=O)(=O)Nc3nccs3)cc2)c1` was tested, and the Potency was inconclusive [inhibitor, full curve].
For `Cc1cc(C)c(C(=O)COc2cccnc2[N+](=O)[O-])cc1C`, the “activity change, negative = inhibition” value was inactive: 1.95%.
`Cc1cccc(C)c1N=Cc1c(C(F)(F)F)[nH][nH]c1=O` was tested, and the Potency was inconclusive [inhibitor, full curve, poor fit].
`CC(OC(=O)c1ccccc1NCCO)C(=O)Nc1ccc(S(=O)(=O)N2CCOCC2)cc1` (stereo unspecified) was tested, and the “activity change, negative = inhibition” value was inactive: -4.82%.
With `Cc1ccc(-c2oc3ccccc3c(=O)c2O)cc1` the Potency was inconclusive [inhibitor, full curve].
For `COc1ccc(/C(N)=N/OC(=O)c2ccc(C)c([N+](=O)[O-])c2)cc1`, the Potency was inconclusive [inhibitor, single point].
With `COC(=O)C1=C(C)N(c2ccc(OC)cc2)C(C)=C(C(=O)OC)C1c1ccccc1` the “activity change, negative = inhibition” value was inactive: 6.19%.
For `COc1ccc(-c2cc(=O)oc3c4c(ccc23)OCN(Cc2cccc(OC)c2)C4)cc1`, the “activity change, negative = inhibition” value was inactive: 13.8%.
For `CC1(c2ccc([N+](=O)[O-])cc2)NC(=O)N(CC(=O)c2ccc3c(c2)OCO3)C1=O` (stereo unspecified), the Potency was inconclusive [inhibitor, full curve].
In the case of `CC(C)N(Cc1nc(-c2ccccc2)no1)C(=O)c1ccc(Cl)cc1`, the “activity change, negative = inhibition” value is reported as inactive: -16.6%.
With `Cc1ccc(C)c(NC(=O)C(c2ccccc2)N2Cc3ccccc3C2=O)c1` (stereo unspecified) the “activity change, negative = inhibition” value was inactive: 2.37%.
In the case of `O=C(CCn1c(=O)[nH]c2ccsc2c1=O)N1CCc2ccccc2C1`, the “activity change, negative = inhibition” value is reported as inactive: 4.8%.
With `CCCOC(=O)c1ccc(O)cc1` the Potency was inconclusive [inhibitor, full curve, poor fit].
In the case of `O=C(OC(C(=O)NC1CCCCC1)c1ccccc1)c1ccco1` (stereo unspecified), the Potency is reported as inconclusive [inhibitor, single point].
`O=C(Nc1ccccn1)c1ccc(Cl)c(S(=O)(=O)N2CCCC2)c1` was tested, and the Potency was inconclusive [inhibitor, full curve].
For `CCCCCOc1ccc(C(=O)NCC(=O)NCC(=O)OCC)cc1`, the Potency was inconclusive [inhibitor, full curve, poor fit].
In the case of `CCN(CCN(C)C)C(=O)C1CCN(S(=O)(=O)c2c(C)noc2/C=C/c2ccccc2F)CC1`, the Potency is reported as “inactive”.
In the case of `CCN1/C(=C/c2ccc3cc(C)ccc3[n+]2CC)Sc2cc(C)ccc21`, the “activity change, negative = inhibition” value is reported as inactive: 0.451%.
With `O=C(c1ccc(CNc2c(N3CCCC3)c(=O)c2=O)cc1)N1CCN(C2CCCCC2)CC1` the Potency was inconclusive [inhibitor, partial curve].
For `O=C(/C=C/c1ccc(Cl)cc1)OCC(=O)c1ccc[nH]1`, the “activity change, negative = inhibition” value was inactive: -5.15%.
In the case of `O=C(COC(=O)c1ccc(Cl)nc1)NC1CCCCCC1`, the Potency is reported as inconclusive [inhibitor, full curve, poor fit].
`CN1C(=O)COc2ccc(C(=O)c3oc4ccccc4c3-c3cnc4c(c3)COc3ccccc3-4)cc21` was tested, and the Potency was inconclusive [inhibitor, partial curve, poor fit].
For `C=CCN1C(=O)C(Cc2ccc(F)cc2)S/C1=N/N=C/c1ccco1` (stereo unspecified), the Potency was inconclusive [inhibitor, single point].
`CSc1ncc(CN2CCN(CCC(C)C)C(CCO)C2)cn1` (stereo unspecified) was tested, and the “activity change, negative = inhibition” value was inactive: 3.72%.
For `CC(C)(Oc1ccc(Cl)cc1)C(=O)Nc1cccc(S(=O)(=O)NC2=NCCC2)c1`, the Potency was inconclusive [inhibitor, full curve, poor fit].
With `COc1ccc(C2c3[nH]c4ccc(OC)cc4c3CCN2C(=O)Nc2ccccc2)cc1` (stereo unspecified) the “activity change, negative = inhibition” value was inactive: 25.4%.
For `CN1CCC(OC(=O)c2cc3cc(Cl)cc(Cl)c3oc2=O)CC1`, the Potency was inconclusive [inhibitor, full curve, poor fit].
In the case of `Cc1ccc2c(c1)[nH]c1c(=O)n(Cc3ccco3)cnc12`, the “activity change, negative = inhibition” value is reported as inactive: -1.69%.
With `Cc1csc(=O)n1CC(=O)OCC(=O)c1c(N)n(CC(C)C)c(=O)n(C)c1=O` the Potency was inconclusive [inhibitor, single point].
In the case of `O=C(NCC1CCCO1)C1CCCN(S(=O)(=O)c2ccc(Cl)cc2)C1` (stereo unspecified), the Potency is reported as inconclusive [inhibitor, full curve, poor fit].
With `O=C(c1ccccn1)N1CCCC(N2CCN(Cc3ccc4c(c3)OCO4)CC2)C1` (stereo unspecified) the “activity change, negative = inhibition” value was inactive: 0.538%.
For `Cc1ccc(C)c(-n2c(-c3csc(C)c3)n[nH]c2=S)c1`, the “activity change, negative = inhibition” value was inactive: 2.9%.
`O=c1[nH]ncc(N2CCN(C(c3ccccc3)c3ccccc3)CC2)c1Cl` was tested, and the Potency was inconclusive [inhibitor, partial curve, poor fit].
With `O=C(Nc1nc(=O)c2ccccc2s1)c1ccc(Cl)cc1` the “activity change, negative = inhibition” value was inactive: 1.3%.
In the case of `Cc1ccc(C(=O)Nc2cccc(C(=O)O)c2)cc1S(=O)(=O)N1CCOCC1`, the “activity change, negative = inhibition” value is reported as inactive: -7.64%.
In the case of `CCOc1ccccc1-n1c(O)c(C=Nc2ccc(N(CC)CC)cc2)c(=O)[nH]c1=O`, the “activity change, negative = inhibition” value is reported as inactive: -7%.
With `O=C(NCc1ccc(Cl)cc1)c1cnn2ccccc12` the Potency was inconclusive [inhibitor, partial curve, poor fit].
For `O=c1oc2cc(O)ccc2cc1-c1ccc(F)cc1`, the activity change, negative = inhibition was inconclusive: -16.8% [inhibitor].
`Cc1ccc2cc(C#N)c(NCCNC(=O)C3CC3)nc2c1C` was tested, and the Potency was inconclusive [inhibitor, full curve, poor fit].
`Cc1ccc(-c2nc3ccccn3c2Nc2ccc3c(c2)OCO3)o1` was tested, and the Potency was inconclusive [inhibitor, single point].
For `O=C(N/N=C/c1cccs1)c1n[nH]c2c1CCC2`, the Potency was inconclusive [inhibitor, partial curve].
In the case of `O=S(=O)(Nc1ccc(-c2nc3cccnc3s2)cc1)c1cccs1`, the Potency is reported as inconclusive [inhibitor, full curve, poor fit].
In the case of `CCOC(=O)c1scc(-c2ccccc2)c1S(=O)(=O)N1CCN(c2ccccc2OC)CC1`, the “activity change, negative = inhibition” value is reported as inactive: 15.4%.
`O=c1[nH]cnc2scc(C3COc4ccccc4O3)c12` (stereo unspecified) was tested, and the Potency was inconclusive [inhibitor, partial curve, poor fit].
`COc1ccc(NC(=O)c2oc3ccc(S(=O)(=O)N(C)C4CCCCC4)cc3c2C)cc1` was tested, and the “activity change, negative = inhibition” value was inactive: 2.24%.
